In the supplement of paper PMC3334620:
Over roughly 33,000 sequences, “E-score (-0.5 to 0.5)” has its median near -0.053; the highest 2% begin near 0.37. This is one part of the list.

Target: Hap1 (UniProt P0CE41)
Test: PBM E-score (8-mer binding enrichment) (E-score (-0.5 to 0.5)); higher = stronger / more preferred TF binding; most listed sequences are background and not binding sites
Conditions: protein concentration: 200 nM; construct: GST-DNA-binding domain
Procedure, shortened: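 E-scores (a modified Wilcoxon-Mann-Whitney statistic) were assigned by the Universal PBM Analysis Suite to every ungapped eight-base word pooled with its reverse complement. The input came from universal all-10-mer Agilent arrays made double-stranded by primer extension and probed with GST-tagged yeast transcription factors at about 100-200 nM. Fluorescent anti-GST detected bound protein, and masliner normalised the scans.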

Sequence of UniProt P0CE41 (P0CE41 whole entry): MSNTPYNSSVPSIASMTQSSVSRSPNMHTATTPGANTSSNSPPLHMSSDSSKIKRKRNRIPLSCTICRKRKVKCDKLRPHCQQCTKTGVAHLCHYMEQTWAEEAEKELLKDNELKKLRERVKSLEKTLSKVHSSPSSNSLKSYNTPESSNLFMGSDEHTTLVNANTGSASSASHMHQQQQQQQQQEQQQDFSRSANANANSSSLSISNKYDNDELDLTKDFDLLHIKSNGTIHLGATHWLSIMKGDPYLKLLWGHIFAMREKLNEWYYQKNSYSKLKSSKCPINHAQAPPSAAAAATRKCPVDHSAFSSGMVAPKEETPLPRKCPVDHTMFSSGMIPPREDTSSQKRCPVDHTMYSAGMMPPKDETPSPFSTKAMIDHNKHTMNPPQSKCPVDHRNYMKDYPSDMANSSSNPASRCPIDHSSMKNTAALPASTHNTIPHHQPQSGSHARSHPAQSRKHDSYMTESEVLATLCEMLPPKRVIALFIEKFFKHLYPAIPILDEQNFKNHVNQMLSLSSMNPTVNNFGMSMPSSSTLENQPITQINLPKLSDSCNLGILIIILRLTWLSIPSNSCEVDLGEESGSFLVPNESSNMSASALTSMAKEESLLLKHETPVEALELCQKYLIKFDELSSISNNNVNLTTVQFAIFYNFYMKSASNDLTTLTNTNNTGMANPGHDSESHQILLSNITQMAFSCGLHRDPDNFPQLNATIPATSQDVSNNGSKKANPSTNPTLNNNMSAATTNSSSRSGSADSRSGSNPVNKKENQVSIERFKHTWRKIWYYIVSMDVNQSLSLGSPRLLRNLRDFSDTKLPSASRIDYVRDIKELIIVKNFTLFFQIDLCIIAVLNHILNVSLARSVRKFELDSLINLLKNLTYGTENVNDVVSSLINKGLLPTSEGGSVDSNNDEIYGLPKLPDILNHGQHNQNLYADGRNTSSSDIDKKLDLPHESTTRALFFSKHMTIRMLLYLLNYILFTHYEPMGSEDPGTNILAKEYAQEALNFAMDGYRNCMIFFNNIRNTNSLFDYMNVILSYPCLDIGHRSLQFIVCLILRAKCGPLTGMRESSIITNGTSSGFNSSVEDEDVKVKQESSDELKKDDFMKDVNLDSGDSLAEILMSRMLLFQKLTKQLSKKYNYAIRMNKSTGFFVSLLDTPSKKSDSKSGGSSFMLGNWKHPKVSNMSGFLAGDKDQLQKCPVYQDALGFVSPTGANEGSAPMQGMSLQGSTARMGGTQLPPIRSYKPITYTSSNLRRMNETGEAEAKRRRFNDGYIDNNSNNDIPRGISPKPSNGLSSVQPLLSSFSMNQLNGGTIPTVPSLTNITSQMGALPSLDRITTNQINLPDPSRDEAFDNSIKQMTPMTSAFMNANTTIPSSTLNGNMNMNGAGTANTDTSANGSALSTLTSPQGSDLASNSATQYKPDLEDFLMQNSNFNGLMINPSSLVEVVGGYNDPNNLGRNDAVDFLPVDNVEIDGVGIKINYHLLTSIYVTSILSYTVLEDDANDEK

Sequence | PBM E-score
CAGCGCAA | -0.18
AAGACATG | -0.258
GGCCCAAA | 0.102
ACTGGACC | 0.0992
GAATGTGC | -0.194
ATCATGAA | -0.163
CGTAAGCA | -0.123
CAGTCCAG | -0.189
AGATAAAC | 0.21
CGGGCCAG | 0.255
CTTGGGGC | -0.0418
AATGCAGT | -0.0352
CCATGTGC | -0.126
AGCCAGGG | -0.269
ACTGGATG | -0.233
AGCCTCTC | -0.254
CCACACCG | 0.115
CCTGCGAC | -0.109
CAGCAGCG | -0.034
AGATGTTG | -0.0337
ATGAGGGA | -0.315
AGTTTAAA | 0.0005
AGGTCGGG | 0.151
GACGCTCA | -0.112
GCAGAAGC | -0.0329

Sequence | PBM E-score
ACAGTTAT | -0.0707
AGCTAGCA | -0.231
GACCCCAA | -0.0595
ACAATGTA | -0.0915
TCACATAA | -0.062
GCCCGAGC | 0.311
ATCGTTAC | -0.186
ATAGGTTG | -0.102
ACCACGCT | -0.0502
GAGAGTAA | -0.0103
GCCCGTTA | 0.287
CCCCCATA | -0.0887
CAAGATGC | 0.0722
ATATGCTG | -0.197
GCAATACA | 0.0803
CAAGTATC | -0.0874
ACATCGCA | -0.0398
GCTTCGTA | -0.371
CATCAGGC | -0.022
ATAAAATC | 0.145
AGTCACTA | -0.153
ACGAGGTG | -0.102
AAGCGTAT | -0.0954
AATTAACT | 0.0148
AAGCGCTA | 0.149

Sequence | PBM E-score
CAGCCTAC | -0.0241
CCTCGCCG | 0.0654
CGCGGGCA | 0.256
CTCTACGC | -0.198
ACGGGCGC | 0.184
CGCATTAG | -0.0393
CTTACGAC | -0.222
AAAGTCAG | -0.199
AAAACAAG | -0.196
CGTGCGAG | 0.117
CAGTGTGG | -0.239
GCCCCTAA | 0.0296
AGCACGTA | -0.154
CAAACTGC | -0.0478
ACGCGTAC | -0.176
GATACGCC | 0.178
CTCGGTTC | 0.123
AAGTATTC | -0.155
AGAGTGCT | -0.168
CAGCTCAA | -0.0862
ATTTGGCC | 0.111
AACGCCTT | 0.0685
ATCATAAT | -0.04
CGGCGTTA | 0.476
GGATATAC | 0.319

Sequence | PBM E-score
TACGTAGA | -0.173
ACAGCTCA | -0.251
CATTCCGC | 0.122
ATAGACAG | -0.209
CTTTCTGA | -0.423
AACTTGAA | -0.0272
AAATCACC | 0.109
GCACAGGA | -0.0781
GTCAAAGA | -0.257
AATCCGCT | 0.243
CCCTGCGA | -0.248
CGTCGGCA | 0.202
CGTCGCAA | -0.0187
CGGCGTGA | 0.256
CCTACCAA | -0.168
AGGGTGCA | -0.0662
ATGATGCC | -0.129
ATTCACGC | -0.157
GACTACGA | -0.157
GATGTACC | -0.0479
GAAGCCCA | -0.0764
AACCGGGC | 0.241
CCGGTGCA | 0.328
AGCTGTAA | -0.222
CCGGCAGG | 0.228

Sequence | PBM E-score
CCTTTGAG | -0.235
CTCATATC | -0.0765
TATGGTCA | -0.303
CCCTTCAG | -0.263
ATCTCAGA | -0.173
CACCGATA | 0.375
AGTTATGG | -0.0493
GATAGACC | 0.145
ATAAAAAC | -0.00499
CACCAGGC | -0.17
TAAGTAGA | -0.115
TATAAGGA | -0.119
CACCTAAG | -0.194
ATTGAGCC | -0.0632
CATAAAGG | 0.0235
CAGTTTGC | -0.00161
CCTCCTAA | -0.135
CAGTCTCC | 0.0476
AAATATCG | 0.303
CGCTGGGA | 0.0217
ACCAAGGT | -0.104
TCTGTAAA | -0.119
ACCATCCT | -0.296
CACCCCAC | -0.026
AGTGTTGG | -0.0111

Sequence | PBM E-score
CGTTGTTA | -0.051
GAGGCGCC | -0.0241
CAACTACG | -0.035
CGAGTACG | 0.0449
TAGGAAGA | -0.258
ACGGATTC | 0.216
TATGCGGA | 0.273
CGCACGCA | 0.0332
CAGGGACA | -0.0206
GTATTTCA | -0.16
AGCTCGGA | 0.325
GCTGGCCA | -0.151
CCTACTTA | -0.122
ACAGACAA | 0.0859
AGACGGGC | 0.0829
AAGTCTCT | -0.346
ATCTACAG | 0.0431
GAGCTCAC | -0.0549
CAATGTGA | -0.124
AGGCACAG | -0.333
ATCGGTAA | 0.31
AGCCTTGA | -0.257
CAGACACA | -0.183
AGTTGCTA | -0.0548
CTAGGGTC | -0.266

Sequence | PBM E-score
CACGGGCG | 0.135
CGAATAAA | 0.185
CGAGGCAA | 0.162
TCACTCGA | -0.17
CAAACCCC | 0.0854
CGTGACGC | -0.122
AATCAGCT | -0.203
AACAGCGT | -0.0733
GTCTCCTA | -0.132
CTGAGGCC | 0.075
TGCTAGAA | -0.118
ACAAAGAA | -0.101
GAATAAGC | -0.0976
GATCGGAA | 0.325
ATTAACTG | -0.0615
GATAATGC | 0.0031
GTGGGTCA | -0.2
AAGGCAGT | -0.255
AAGGCATA | -0.198
AAGCCGTA | 0.0164
GAATAGAA | 0.0298
AGACCGAA | 0.281
